Laboratory results from PubChem BioAssay AID757 (NMMLSC, 2007).
About 520 (0.27%) of roughly 190,000 compounds were called active. This list was built around the results that the source calls inconclusive (neither active nor inactive); the mix of calls is not that of the screen.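 Rule for the calls: active = GTP binding activity at least 20 points away from the 100% control level, either lower or higher; inconclusive = compound flagged as likely green fluorescent, judged across all proteins; inactive = the rest.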

Biological target: Ras-related C3 botulinum toxin substrate 1 (Homo sapiens) (UniProt P63000)
Assay: wildtype Rac1 GTP binding modulators, primary screen, biochemical, GST-Rac1 beads, flow cytometry, multiplex (AID 757)
Details: fluorescent GTP binding, at 10 µM, actives lie on both sides, 0 = cold GTP competed, 100 = untreated

| Structure (SMILES) | GTP binding activity (% of control) |
| --- | --- |
| Cc1ccc(NC(=O)NC2(C(=O)NCc3ccccc3)CCCCC2)cc1 | inconclusive: 98% |
| CC(C)CCNCC1OCc2ccccc2CO1 | inactive: 102% |
| CCOc1ccc(NC(=S)N=Nc2c(O)[nH]c3ccccc23)cc1 | inconclusive: 79% |
| CCC(C)N(C(=O)c1csnn1)C(C(=O)NC(C)(C)C)c1ccccc1 (centres undefined) | inactive: 105% |
| Cc1ccc(C)c(C(=O)OCC(=O)Nc2ccc(N3CCOCC3)cc2)c1 | inconclusive: 100% |
| COC(=O)c1ccccc1NC(=S)NC(NC(=O)c1ccccc1[N+](=O)[O-])C(Cl)(Cl)Cl (centres undefined) | inconclusive: 109% |
| COC(/C=C/Nc1ccc(OC)cc1)=C(C#N)C#N | inconclusive: 102% |
| CCCN(CCC)S(=O)(=O)c1ccc(C(=O)Nc2cc3oc4ccccc4c3cc2OC)cc1 | inactive: 97% |
| O=C(COC(=O)Cc1ccc(S(=O)(=O)N2CCOCC2)s1)Nc1ccc2c(c1)OCO2 | inconclusive: 106% |
| CCOc1ccc(N(CC(=O)NCCc2ccc(Cl)cc2)S(=O)(=O)c2c(C)[nH]c(=O)[nH]c2=O)cc1 | inactive: 84% |
| Cc1cccc(CSc2ncccc2C(=O)O)c1 | active: 161% [activator] |
| COc1ccc(/C=N/n2c(N)c(S(=O)(=O)c3cccs3)c3nc4ccccc4nc32)cc1OC | active: 57% |
| Cn1c(=N)c(S(=O)(=O)c2ccccc2)cc2c(=O)n3ccccc3nc21 | inconclusive: 84% |
| Cc1ccc(NC(=S)N(Cc2ccccc2)Cc2cccs2)c(C)c1 | inactive: 96% |
| Cc1ccnc(NC(=O)Cn2cc([N+](=O)[O-])cn2)c1 | inactive: 98% |
| O=C(Nc1ccc(Cc2ccncc2)cc1)c1ccc(S(=O)(=O)N2CCCC2)cc1 | inactive: 99% |
| NC(N)=Nc1nc2ccc(Cl)cc2c(=O)[nH]1 | inconclusive: 92% |
| Cc1cc(C)n(Cc2n[nH]c(=S)n2Cc2ccccc2)n1 | inconclusive: 248% |
| Cn1c(SCCOc2cccc(Cl)c2)nnc1-c1ccncc1 | inconclusive: 106% |
| O=C(COC(=O)c1ccccc1C(=O)N1CCN(c2ccccc2)CC1)NCc1ccccc1 | inconclusive: 95% |
| Cc1cc(=O)oc2cc(OCC(=O)OCC(=O)Nc3ccccc3F)ccc12 | inconclusive: 94% |
| Cc1cccc2sc(N(CCN(C)C)C(=O)/C=C/c3cccs3)nc12 | inconclusive: 104% |
| O=[N+]([O-])c1ccc(Cl)c(/C=N/n2c(-c3cccnc3)n[nH]c2=S)c1 | inconclusive: 81% |
| O=C1CCCc2nc(N3CCc4ccccc43)ncc21 | inconclusive: 90% |

| Structure (SMILES) | GTP binding activity (% of control) |
| --- | --- |
| Cc1c(NC(=O)Nc2ccccc2Cl)sc(=S)n1C | inconclusive: 105% |
| Cc1ccc(-c2nnc3sc(C4COc5ccccc5O4)nn23)cc1 (centres undefined) | inconclusive: 93% |
| CCn1c(CSc2nc(C)cc(C)n2)nnc1SCC(N)=O | inactive: 95% |
| CCn1c2ccccc2c2nc3ccccc3nc21 | inactive: 101% |
| CCCCNC(=S)NCCN1CCN(C(=S)NCCCC)CC1 | inactive: 98% |
| O=C(CSc1cccc[n+]1[O-])Nc1cc([N+](=O)[O-])ccc1Cl | inconclusive: 98% |
| c1ccc(-c2cc3c(N4CCCCC4)ncnc3s2)cc1 | inconclusive: 93% |
| CCOc1cc(C(=O)NC(C)CC)cc(OCC)c1OCC (centres undefined) | inconclusive: 105% |
| CCN1CCN(c2nc3c(c(=O)n(C)c(=O)n3C)n2Cc2cccc3ccccc23)CC1 | active: 120% [activator] |
| CC(=O)N1CCc2cc(Br)cc(S(=O)(=O)NCCCN3CCCC(C)C3)c21 (centres undefined) | inconclusive: 89% |
| CCc1ccc(Cc2cnc(NC(=O)C3=NCCN3)s2)cc1 | inactive: 96% |
| CC(C)CC1CCCCC1OC(=O)C[N+]1(C)CCCCC1 (centres undefined) | inconclusive: 97% |
| O=C(c1cc2sccc2n1Cc1ccccc1)N1CCc2ccccc21 | inconclusive: 104% |
| CNS(=O)(=O)c1cccc2cccnc12 | inconclusive: 106% |
| COCc1nc2ccccc2n1Cc1cccc(C)c1 | inconclusive: 93% |
| O=C(NCC1CCCO1)c1ccc2c(=O)n(CC3CCCO3)c(SCC(=O)N3CCCC3)nc2c1 (centres undefined) | inactive: 100% |
| N#CCc1nc2n(n1)Cc1ccccc1-2 | inconclusive: 104% |
| COc1ccccc1C1C(C(N)=O)=C(C)Nc2nc(-c3ccccc3Cl)nn21 (centres undefined) | inconclusive: 104% |
| CCN(CCCNC(=O)CCn1c(=O)[nH]c2ccccc2c1=O)c1cccc(C)c1 | inconclusive: 111% |
| NC(=O)/C(=N\O)c1ccccc1 | inconclusive: 99% |
| CC(C)Cn1c(N)c(C=O)c(=O)[nH]c1=O | inactive: 99% |
| CCN(CC)S(=O)(=O)c1cccc(C(=O)N/N=C(\C)c2ccc(O)cc2O)c1 | inconclusive: 97% |
| CC(C)Cn1c(N)c(C(=O)CSc2nc3ccccc3c(=O)n2CCCN2CCOCC2)c(=O)n(C)c1=O | inactive: 98% |
| Cc1cccc(NC(=O)Nc2ccc(Oc3c(F)c(F)c(F)c(F)c3F)cc2)c1 | inconclusive: 108% |

| Structure (SMILES) | GTP binding activity (% of control) |
| --- | --- |
| CCOC(=O)N1CCN(C(=O)CCc2ccc(S(=O)(=O)NCCc3ccccc3)cc2)CC1 | active: 29% |
| CCn1c(SCc2ccc(C#N)cc2)nnc1-c1cccc(Cl)c1 | inconclusive: 90% |
| Cc1sc2nc(SCC(=O)NCc3ccco3)n(CCc3ccccc3)c(=O)c2c1C | inconclusive: 103% |
| CCOC(=O)C1=C(C)OC(N)=C(C#N)C1c1cc2c(cc1[N+](=O)[O-])OCO2 (centres undefined) | inactive: 98% |
| CCOc1ccccc1-n1c(C)nc2cc(C(=O)O)ccc21 | inconclusive: 102% |
| Cc1nnc(SCc2cccc(Cl)c2)n(N)c1=O | inconclusive: 96% |
| COc1cccc(-c2nn3c(-c4ccccn4)nnc3s2)c1 | inconclusive: 88% |
| CSCCCNC(=S)N1CCc2ccccc2C1 | inactive: 96% |
| CC(C)C(=O)Nc1ccc(C(=O)N/N=C/C2CC3C=CC2C3)cc1 (centres undefined) | inconclusive: 105% |
| CC(C)c1ccccc1NC(=O)COC(=O)c1ccc(Cl)c(S(=O)(=O)N2CCCCCC2)c1 | inactive: 104% |
| CC(=O)c1c(C)[nH]c(C(=O)Nc2cc(S(=O)(=O)N(C)C)ccc2C)c1C | inactive: 97% |
| CCC(C)(C)NC(=O)C1CCN(S(=O)(=O)c2cccs2)CC1 | inconclusive: 149% |
| Cc1ccnc(NC(c2ccccc2O)c2oc(CO)cc(=O)c2O)c1 (centres undefined) | inactive: 94% |
| CC(C)OC(=O)CC1C(=O)NCCN1C(=S)NC(=O)c1ccc(F)cc1 (centres undefined) | inactive: 102% |
| COc1ccc(NS(=O)(=O)c2csc(C(=O)Nc3ccccc3)c2)cc1 | inconclusive: 102% |
| Cn1[nH]c(C(F)(F)F)c(C=Nc2ccc(Cl)cc2)c1=O | inactive: 99% |
| CCC(C)N1C(=O)S/C(=C/c2ccc(N3CCOCC3)cc2C)C1=O (centres undefined) | inconclusive: 105% |
| NC(=O)N1CCN(C(=O)c2ccco2)CC1 | inconclusive: 106% |
| Cc1csc(SCC(=O)c2ccc(S(=O)(=O)N3CCOCC3)cc2)n1 | inactive: 105% |
| CCOc1cc(/C=N/NC(=O)C(C)Sc2ccccc2)ccc1O (centres undefined) | active: 78% |
| CCOC(=O)c1c(NC(=O)/C=C/c2ccc3c(c2)OCO3)sc(C)c1C | inactive: 102% |
| COc1cc2[nH]c(=S)nc(NCCc3ccc(C)cc3)c2cc1OC | active: 49% |
| O=c1oc2c(O)c(O)cc3c(=O)oc4c(O)c(O)cc1c4c23 | inconclusive: 85% |
| O=c1c2c(nc3c(-c4ccc(Cl)cc4)c[nH]n13)CCC2 | inconclusive: 86% |

| Structure (SMILES) | GTP binding activity (% of control) |
| --- | --- |
| COc1ccc(S(=O)(=O)Cc2ccc(C(=O)N3CCN(c4cc(Cl)ccc4C)CC3)o2)cc1 | active: 76% |
| Cc1ccc(NC(=O)N/C=C/c2ccccc2)cc1 | inconclusive: 94% |
| CC(=O)Nc1ccc(NC(=O)C2CCN(C(=O)c3cccs3)CC2)cc1 | inactive: 103% |
| CC(C)OC(=O)CCCCCN1C(=O)CSC1=S | inconclusive: 102% |
| CC(=O)N=c1sc2nc3ccccc3nc2n1N(C(C)=O)C(C)=O | inconclusive: 87% |
| COc1ccc(C(=O)NC(=S)N2CC(C)OC(C)C2)cc1 (centres undefined) | active: 137% [activator] |
| N#Cc1cc2c(nc1SCc1nc3ccccc3[nH]1)CCC2 | inconclusive: 93% |
| Cc1cc(NC(=O)CSCC(=O)N(c2cccc(Cl)c2)C(C(=O)NC2CCCCC2)c2ccc(O)c(O)c2)no1 (centres undefined) | inactive: 101% |
| COc1ccc(CNC(=O)c2c(O)c3ccccc3n(C)c2=O)cc1OC | inconclusive: 97% |
| CNC(=S)Nc1cc(C)ccc1OC(F)F | inconclusive: 101% |
| Cc1cc(Br)ccc1NC(=O)CN1C(=S)NC(C)(C)CC1C (centres undefined) | inconclusive: 89% |
| COc1c(C)cccc1C(=O)NC(=S)Nc1ccc2c(c1)Cc1ccccc1-2 | active: 77% |
| O=C(COC(=O)c1ccc(Cl)c([N+](=O)[O-])c1)Nc1ccccc1OC(F)F | inconclusive: 105% |
| O=c1[nH]c2c(c3c1CCCC3)CCCC2 | inconclusive: 100% |
| COCCNc1ccc([N+](=O)[O-])cc1C(=O)Nc1cccc(C)n1 | inactive: 100% |
| CC(C)C(NC(=S)Nc1ccccc1)C(=O)O (centres undefined) | inactive: 101% |
| O=c1oc(-c2cccs2)nc2scc(-c3cccs3)c12 | inconclusive: 89% |
| Cc1ccccc1NC(=O)c1ccc(CN(c2ccccc2)S(=O)(=O)c2ccccc2)cc1 | inactive: 101% |
| O/N=C1\CC/C(=N\O)c2nn(-c3ccc(Cl)cc3Cl)nc21 | inconclusive: 95% |
| Cn1c(=O)[nH]c(=O)c2c1nc(N1CCCCCC1)n2CCOc1ccccc1 | inactive: 97% |
| Brc1ccc(Nc2nc(-c3cccnc3)cs2)cc1 | inconclusive: 98% |
| Cc1ccc(-n2c(=O)cc(N3CCN(C(=O)c4ccco4)CC3)[nH]c2=O)cc1 | active: 121% [activator] |
